In PubChem BioAssay AID504333 (National Center for Advancing Translational Sciences (NCATS), 2011):
The campaign covered roughly 360,000 compounds. About 16,000 (4.4%) were called active. The shares of active, inactive and inconclusive entries below differ from those in the screen. Calls follow the shape of the dose curve; as a rule, active = well fitted inhibition curve with a large enough effect; inconclusive = small, poorly fitted or top-dose-only effect; inactive = no such curve, though single readings can be large or run the other way. A potency beside an inconclusive call is a rough fit, not a confirmed value.

Each compound was assayed against Bromodomain adjacent to zinc finger domain protein 2B (Homo sapiens) (UniProt Q9UIF8) (assay: qHTS Assay for Inhibitors of BAZ2B). Settings: AlphaScreen BAZ2B-H3K14Ac peptide displacement; series mostly up to 114 µM.
Method in brief: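 Complex of BAZ2B and biotin-H3K14Ac (50 nM apiece) forms over 30 min at RT, then faces library compounds up to 110 uM for another 30 min; AlphaScreen beads added, 20 min dark incubation, luminescence read.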
Also: nearly all actives have a fitted effect of over 60% in size.
Potency is read from the fitted curve at half-maximal effect; tags tell the direction and shape of the fitted curve.

Chain of UniProt Q9UIF8 (Q9UIF8 whole entry, looked up, the tested form may be a part): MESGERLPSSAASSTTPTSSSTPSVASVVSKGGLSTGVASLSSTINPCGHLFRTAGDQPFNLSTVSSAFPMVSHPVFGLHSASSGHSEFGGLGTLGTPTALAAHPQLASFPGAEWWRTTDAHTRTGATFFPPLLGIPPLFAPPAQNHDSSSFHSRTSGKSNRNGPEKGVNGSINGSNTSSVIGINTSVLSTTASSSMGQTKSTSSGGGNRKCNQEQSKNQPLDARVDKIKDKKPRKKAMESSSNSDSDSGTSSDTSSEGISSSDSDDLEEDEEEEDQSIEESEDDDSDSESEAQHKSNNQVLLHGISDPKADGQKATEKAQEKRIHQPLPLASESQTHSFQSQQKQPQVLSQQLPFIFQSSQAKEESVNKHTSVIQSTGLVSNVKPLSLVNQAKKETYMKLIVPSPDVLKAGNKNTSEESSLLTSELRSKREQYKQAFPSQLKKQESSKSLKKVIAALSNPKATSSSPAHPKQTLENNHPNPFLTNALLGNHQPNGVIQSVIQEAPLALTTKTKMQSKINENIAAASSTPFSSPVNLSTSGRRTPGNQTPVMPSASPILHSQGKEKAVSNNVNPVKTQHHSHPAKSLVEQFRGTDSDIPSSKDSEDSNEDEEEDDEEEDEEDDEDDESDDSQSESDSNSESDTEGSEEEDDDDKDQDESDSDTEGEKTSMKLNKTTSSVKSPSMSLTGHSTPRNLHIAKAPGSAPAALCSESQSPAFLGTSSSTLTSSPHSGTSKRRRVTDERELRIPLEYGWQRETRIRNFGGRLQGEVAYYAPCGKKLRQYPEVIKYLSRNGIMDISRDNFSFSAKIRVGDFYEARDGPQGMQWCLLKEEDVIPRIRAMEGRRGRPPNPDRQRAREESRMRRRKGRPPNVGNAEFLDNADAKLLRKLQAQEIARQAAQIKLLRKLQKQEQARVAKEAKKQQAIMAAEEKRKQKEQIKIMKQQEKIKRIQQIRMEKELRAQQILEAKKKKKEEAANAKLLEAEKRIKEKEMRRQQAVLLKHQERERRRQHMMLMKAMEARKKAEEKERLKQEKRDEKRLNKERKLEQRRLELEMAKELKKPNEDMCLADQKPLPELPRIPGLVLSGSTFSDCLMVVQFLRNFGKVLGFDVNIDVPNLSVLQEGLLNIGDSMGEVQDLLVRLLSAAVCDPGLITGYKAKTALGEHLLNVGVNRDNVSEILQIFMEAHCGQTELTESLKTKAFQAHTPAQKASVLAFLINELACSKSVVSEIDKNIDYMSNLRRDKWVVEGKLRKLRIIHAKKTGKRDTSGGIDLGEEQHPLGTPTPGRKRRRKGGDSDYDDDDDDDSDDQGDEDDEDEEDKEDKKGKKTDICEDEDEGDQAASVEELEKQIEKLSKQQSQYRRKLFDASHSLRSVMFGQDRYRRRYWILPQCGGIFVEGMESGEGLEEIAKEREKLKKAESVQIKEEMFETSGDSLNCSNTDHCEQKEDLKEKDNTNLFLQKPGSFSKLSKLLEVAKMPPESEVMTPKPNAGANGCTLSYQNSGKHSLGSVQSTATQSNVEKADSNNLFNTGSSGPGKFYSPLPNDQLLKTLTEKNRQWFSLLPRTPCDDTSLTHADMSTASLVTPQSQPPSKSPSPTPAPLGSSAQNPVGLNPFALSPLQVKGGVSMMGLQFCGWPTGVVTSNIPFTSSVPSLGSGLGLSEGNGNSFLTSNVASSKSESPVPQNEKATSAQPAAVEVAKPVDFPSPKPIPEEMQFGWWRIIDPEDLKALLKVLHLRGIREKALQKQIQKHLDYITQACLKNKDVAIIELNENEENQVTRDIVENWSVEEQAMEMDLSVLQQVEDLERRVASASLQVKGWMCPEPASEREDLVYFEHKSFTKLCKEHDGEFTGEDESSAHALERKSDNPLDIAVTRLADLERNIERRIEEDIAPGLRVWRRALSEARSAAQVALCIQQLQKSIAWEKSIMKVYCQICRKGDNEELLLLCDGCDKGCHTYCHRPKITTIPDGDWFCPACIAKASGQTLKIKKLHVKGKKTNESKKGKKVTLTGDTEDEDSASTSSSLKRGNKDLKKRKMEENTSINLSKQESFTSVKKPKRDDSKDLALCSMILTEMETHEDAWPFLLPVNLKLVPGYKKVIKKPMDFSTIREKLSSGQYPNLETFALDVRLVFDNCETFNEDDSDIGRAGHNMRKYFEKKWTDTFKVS

SMILES | Potency
COc1ccc(CNc2nc3ccccc3n2Cc2ccc(Cl)cc2)cc1OC | inconclusive: 39.8 µM [inhibitor, partial curve]
CC(COc1ccccc1)N1CCC(CO)(Cc2ccccc2)CC1 (configuration not stated) | inactive
Cc1ccc([C@@H]2C[C@H]3CN(Cc4cccc(Cl)c4)C(=O)[C@]34CCCN24)o1 | inconclusive: 89.1 µM [inhibitor, single point]
CC(C)Oc1cccc(C(=O)Nc2ccc3oc(-c4ccccc4)nc3c2)c1 | inactive
Cc1cc(Cc2cc(C)c(N)cc2C)c(C)cc1N | active: 35.5 µM
Cc1ccc2nc(CN3CCN(S(=O)(=O)c4ccccc4)CC3)oc2c1 | inactive
Cc1ccc(S(=O)(=O)NC(=O)NCc2ccccn2)cc1 | inconclusive: 89.1 µM [inhibitor, single point]
C/C(CC(=O)NCc1ccc(F)cc1)=N\NC(N)=S | inconclusive: 89.1 µM [inhibitor, single point]
O=C1CCCN2N=C(SCC(=O)Nc3cccc(F)c3)SC2=N1 | inconclusive: 89.1 µM [inhibitor, single point]
CCN1CCN(Cc2coc3ccc(C)cc3c2=O)CC1 | inconclusive: 100 µM [inhibitor, single point]
CCOC(=O)c1c(C)[nH]c(-c2csc(N)n2)c1C | inconclusive: 89.1 µM [inhibitor, single point]
COc1ccc(/C=N/NC(=O)c2ccc(O)cc2O)cc1CSc1ccccn1 | active: 56.2 µM
COc1cc(CC2COC(c3ccc(O)c(OC)c3)C2COC(C)=O)ccc1O (configuration not stated) | active: 39.8 µM
Cc1cc(O)c(C(C)C)cc1N=Nc1ccccc1C(=O)O | inconclusive: 44.7 µM [inhibitor, partial curve]
OCCN1CCN(CC(O)COc2ccc(Cl)cc2)CC1 (configuration not stated) | inconclusive: 89.1 µM [inhibitor, single point]
CC(=O)Oc1ccc(/C=C2/SC(=S)N(Cc3ccccc3)C2=O)cc1 | active: 3.55 µM
O=C1NC(Cc2ccccc2)C(=O)N1Cc1cc([N+](=O)[O-])cc2c1OCOC2 (configuration not stated) | active: 79.4 µM
Cc1c(Nc2scc(-c3ccccc3)[n+]2-c2ccccc2)c(=O)n(-c2ccccc2)n1C | active: 50.1 µM
O=C1C(=O)N(c2cccc(Cl)c2)C(c2ccccc2[N+](=O)[O-])/C1=C(\O)c1ccccc1 (configuration not stated) | active: 79.4 µM
CN1CCN(c2ccc(Cl)cc2NC(=O)CCN2C(=O)c3ccccc3C2=O)CC1 | inconclusive: 8.91 µM [inhibitor, partial curve]
COc1ccc(-c2nc3ccccn3c2/N=C/c2ccc(OC)c(OC)c2)cc1O | inconclusive: 14.1 µM [inhibitor, full curve]
CC(C)(C)C(=O)c1no[n+]([O-])c1/C(=N/O)C(C)(C)C | inconclusive: 89.1 µM [inhibitor, single point]
CC(C)=CCCC1(C)C=Cc2c(c(C)cc3c2[nH]c2cc(O)ccc23)O1 (configuration not stated) | active: 44.7 µM
CCN1/C(=C/C(C)=O)Sc2ccc(OC)cc21 | inconclusive: 50.1 µM [inhibitor, partial curve]

SMILES | Potency
COc1cc(O)c(C(CC(=O)N2CCOCC2)c2ccc(N(C)C)cc2)c(OC)c1 (configuration not stated) | inconclusive: 50.1 µM [inhibitor, partial curve]
CCOc1cc(CNCCO)ccc1OCC(=O)NC(C)(C)C | inconclusive: 89.1 µM [inhibitor, single point]
C[C@H]1c2cccc(O)c2C(O)=C2C(=O)[C@]3(O)C(O)=C(C(N)=O)C(=O)[C@@H](N(C)C)[C@@H]3[C@@H](O)[C@@H]21 | active: 8.91 µM
CCCCOC(=O)c1ccc(NC(=O)/C(C#N)=C/c2ccc(C)o2)cc1 | inactive
CCCCC(c1nnnn1CCOC)N1CCN(c2cccc(OC)c2)CC1 (configuration not stated) | active: 50.1 µM
C/C(=N\NC(=O)c1ccc(Cn2cc(Br)cn2)o1)c1ccc(NC(=O)c2ccoc2C)cc1 | inconclusive: 44.7 µM [inhibitor, partial curve]
COc1ccc(/C=N/NC(=O)CCn2cnc3ccccc32)cc1 | inactive
COc1ccccc1C(=O)/C=C/c1ccc(N2CCCCC2)c([N+](=O)[O-])c1 | active: 6.31 µM
COc1ccc(NC(=O)c2[nH]nc3c2CSc2ccccc2-3)c(OC)c1 | inactive
Cc1cccc(N2CCN(C(=O)c3ccc(CNc4c(N5CCC(C)CC5)c(=O)c4=O)cc3)CC2C)c1 (configuration not stated) | inconclusive: 35.5 µM [inhibitor, partial curve]
Cc1cc(C(=O)COC(=O)c2n[nH]c(=O)c3ccccc23)c(C)n1C(C)C | inconclusive: 70.8 µM [inhibitor, single point]
Cc1ccc2nc(SCC(=O)N(C)C3CCS(=O)(=O)C3)[nH]c2c1 (configuration not stated) | inactive
Cc1ccc2oc(=O)c3cc(C(=O)Nc4cccc(C#N)c4)sc3c2c1 | inactive
CC1=NN(c2ccccc2)C(=O)/C1=C/N(C)C | inconclusive: 3.55 µM [inhibitor, single point]
COc1ccc2nc3cc(Cl)ccc3c(Nc3cc(CN4CCCC4)c(O)c(CN4CCCC4)c3)c2n1 | active: 39.8 µM
Nc1ccccc1-c1n[nH]c(=S)s1 | inconclusive: 50.1 µM [inhibitor, partial curve]
Cc1oc(-c2ccccc2Cl)nc1CS(=O)CC(=O)NCc1ccc2c(c1)OCO2 (configuration not stated) | inactive
COC(=O)c1nc(N)sc1C | inconclusive: 89.1 µM [inhibitor, single point]
Cc1cccc(NC2=C(NC(=O)c3ccccc3)C(=O)c3ccccc3C2=O)c1 | active: 28.2 µM
Clc1cc(NCc2cccs2)ccc1N1CCOCC1 | active: 50.1 µM
CCOC(=O)CCCCC(=O)c1[nH]c(=O)[nH]c1Cn1cnc2ccccc21 | active: 35.5 µM
CCN(CCCNC(=O)c1[nH]c(C)c(C(C)=O)c1C)c1cccc(C)c1 | active: 50.1 µM
O=C(CCn1c(=O)c2ccccc2n(Cc2ccccc2)c1=O)NC1CCN(Cc2ccccc2)CC1 | inconclusive: 89.1 µM [inhibitor, single point]
